Test results as given in PubChem BioAssay AID504339 (National Center for Advancing Translational Sciences (NCATS), 2011).
Several values for one entry are separate records, joined by “and”; a condition that tells them apart may be missing. Equal entries are not always repeated. In all, about 390,000 compounds went through this assay and about 17,000 (4.4%) were called active. The shares of active, inactive and inconclusive entries below differ from those in the screen. The call rests on the fitted dose curve; in most records, active means well fitted inhibition curve with a large enough effect; inconclusive means small, poorly fitted or top-dose-only effect; inactive means no such curve, though single readings can be large or run the other way. A potency beside an inconclusive call is a rough fit, not a confirmed value.

These compounds were tested against Lysine-specific demethylase 4A (Homo sapiens) (UniProt O75164) (assay: qHTS Assay for Inhibitors of JMJD2A-Tudor Domain). Conditions: AlphaScreen JMJD2A-Tudor / H3K4me3 peptide binding; series mostly up to 114 µM.
Further: nearly all actives have a fitted effect of over 50% in size.
Potency means the concentration at half of the fitted maximal effect; tags describe the fitted curve by direction and shape.

UniProt O75164, sequence (O75164 whole entry, looked up, the tested form may be a part): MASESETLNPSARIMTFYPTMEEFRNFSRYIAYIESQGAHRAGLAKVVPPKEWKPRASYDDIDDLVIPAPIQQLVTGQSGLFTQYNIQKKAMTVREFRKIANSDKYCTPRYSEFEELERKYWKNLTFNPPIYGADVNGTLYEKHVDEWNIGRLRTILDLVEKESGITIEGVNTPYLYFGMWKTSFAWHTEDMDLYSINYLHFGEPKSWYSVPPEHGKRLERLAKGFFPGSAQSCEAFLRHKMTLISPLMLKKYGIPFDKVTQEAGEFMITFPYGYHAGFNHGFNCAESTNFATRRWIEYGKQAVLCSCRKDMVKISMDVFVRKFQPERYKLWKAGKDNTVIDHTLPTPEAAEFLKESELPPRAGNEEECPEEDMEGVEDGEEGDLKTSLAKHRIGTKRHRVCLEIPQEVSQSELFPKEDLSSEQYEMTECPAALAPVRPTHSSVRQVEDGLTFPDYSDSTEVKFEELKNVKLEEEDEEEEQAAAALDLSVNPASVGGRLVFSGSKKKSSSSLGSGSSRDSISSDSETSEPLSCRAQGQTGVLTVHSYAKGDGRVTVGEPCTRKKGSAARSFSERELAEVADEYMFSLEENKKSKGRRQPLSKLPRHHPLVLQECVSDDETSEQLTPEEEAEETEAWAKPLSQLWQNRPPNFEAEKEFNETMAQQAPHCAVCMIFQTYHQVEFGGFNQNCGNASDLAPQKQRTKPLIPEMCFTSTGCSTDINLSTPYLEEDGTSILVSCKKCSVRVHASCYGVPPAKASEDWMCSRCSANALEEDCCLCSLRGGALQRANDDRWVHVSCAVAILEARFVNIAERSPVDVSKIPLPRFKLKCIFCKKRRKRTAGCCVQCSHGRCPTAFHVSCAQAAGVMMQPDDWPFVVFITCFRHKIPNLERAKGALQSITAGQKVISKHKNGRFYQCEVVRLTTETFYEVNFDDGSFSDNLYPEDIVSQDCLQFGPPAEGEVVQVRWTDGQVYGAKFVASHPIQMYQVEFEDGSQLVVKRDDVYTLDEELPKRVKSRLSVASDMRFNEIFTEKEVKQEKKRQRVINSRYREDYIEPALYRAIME

**Q.** For `C=CCn1c(SCC(=O)NCCOC)nc2scc(-c3ccco3)c2c1=O`, which Potency is on record?
**A.** active: 79.4 µM

**Q.** With `O=C(Nc1ccc(S(=O)(=O)Nc2ncccn2)cc1)C1=NN(c2ccccc2)C(=O)CC1` as the compound, how does the Potency read?
**A.** inconclusive: 89.1 µM [inhibitor, partial curve]

**Q.** How did the Potency turn out when `Cc1ccc(-c2nc3ccccc3s2)cc1NC(=O)c1cc(-n2cnnc2)ccc1Cl` was run?
**A.** inconclusive: 63.1 µM [inhibitor, partial curve, poor fit]

**Q.** For `CCOc1cccc(-c2nnc3sc(C4CCCCC4)nn23)c1`, which Potency is on record?
**A.** inactive

**Q.** With `Cc1ccc(Cn2c(CCNc3nc(-c4ccc(C)cc4)cs3)nc3cc(C(=O)NCCCO)ccc32)cc1` as the compound, how does the Potency read?
**A.** inconclusive: 44.7 µM [inhibitor, partial curve]

**Q.** For `CN(Cc1ccccc1)c1oc(-c2ccco2)nc1C#N`, which Potency is on record?
**A.** inconclusive: 50.1 µM [inhibitor, partial curve]

**Q.** Which Potency does the source give for `COCc1cc(C)nc(Nc2ccccc2OC)c1C#N` here?
**A.** inactive

**Q.** How did the Potency turn out when `Cc1[nH]c(-c2ccc3c(c2)OCO3)nc1C(=O)O` was run?
**A.** active: 22.4 µM

**Q.** How did the Potency turn out when `CCN(CCn1cccn1)C(=O)C1CCC(=O)N(CC2CCCCC2)C1` (configuration not stated) was run?
**A.** inconclusive: 89.1 µM [inhibitor, partial curve, poor fit]

**Q.** With `CN1C(=O)/C(=C/c2ccc(C(=O)NC3CCCC3)cc2)Oc2ccccc21` as the compound, how does the Potency read?
**A.** inconclusive: 89.1 µM [inhibitor, single point]

**Q.** With `Cc1csc2nc(COc3ccc(NC(=O)COc4ccc(F)cc4)cc3)cc(=O)n12` as the compound, how does the Potency read?
**A.** inactive

**Q.** Which Potency does the source give for `Cc1cc(C)nc(NS(=O)(=O)c2ccc(NC(=O)CSc3ncn[nH]3)cc2)n1` here?
**A.** inconclusive: 12.6 µM [inhibitor, full curve]

**Q.** For `O=[N+]([O-])c1cc(-c2csc(NCCc3nc4cc(Cl)c(N5CCCCC5)cc4n3CCCO)n2)ccc1Cl`, which Potency is on record?
**A.** inconclusive: 79.4 µM [inhibitor, partial curve]

**Q.** Which Potency does the source give for `Cc1ccnc(SCc2cc(=O)c(OC(=O)c3cc([N+](=O)[O-])ccc3Cl)co2)n1` here?
**A.** inconclusive: 15.8 µM [inhibitor, partial curve, poor fit]

**Q.** `O=C(c1ccc(-n2cccn2)cc1)N1CCc2c([nH]c3ccccc23)C1c1ccccn1` (configuration not stated) was tested. Which Potency did it give?
**A.** inconclusive: 50.1 µM [inhibitor, partial curve]

**Q.** With `c1ccc(-c2nnc3sc(-c4csc5c4CCCC5)nn23)cc1` as the compound, how does the Potency read?
**A.** inconclusive: 35.5 µM [inhibitor, partial curve]

**Q.** With `COc1ccccc1-c1cn[nH]c(=S)n1` as the compound, how does the Potency read?
**A.** active: 50.1 µM

**Q.** Which Potency does the source give for `Cc1ccc2sc(N(CCCN(C)C)C(=O)c3ccc(S(=O)(=O)N(C)C4CCCCC4)cc3)nc2c1C` here?
**A.** inconclusive: 22.4 µM [inhibitor, full curve]

**Q.** With `Cc1cnc(N2C(=O)c3ccc([N+](=O)[O-])cc3C2=O)s1` as the compound, how does the Potency read?
**A.** inconclusive: 35.5 µM [inhibitor, partial curve]

**Q.** How did the Potency turn out when `Nc1c(C(=O)N2CCOCC2)sc2nc(N3CCOCC3)c3c(c12)CCCC3` was run?
**A.** inconclusive: 89.1 µM [inhibitor, partial curve]

**Q.** With `CCN(CC)CCn1c2ccccc2c(=O)c2c(O)ccc(O)c21` as the compound, how does the Potency read?
**A.** active: 44.7 µM

**Q.** How did the Potency turn out when `N=C1/C(=C\c2ccc(-c3cccc(Cl)c3)o2)C(=O)N=C2SC=C(c3ccccc3)N12` was run?
**A.** inconclusive: 39.8 µM [inhibitor, partial curve]

**Q.** For `OCCN1CCN(CC/C=C2/c3ccccc3Sc3ccc(C(F)(F)F)cc32)CC1`, which Potency is on record?
**A.** inconclusive: 44.7 µM [inhibitor, partial curve]

**Q.** `O=C(NC(NNc1ccc([N+](=O)[O-])cc1)(C(F)(F)F)C(F)(F)F)c1ccc(F)cc1` was tested. Which Potency did it give?
**A.** inconclusive: 50.1 µM [inhibitor, partial curve]

**Q.** With `CN(C)CCCCOc1ccc(F)cc1` as the compound, how does the Potency read?
**A.** active: 0.891 µM

**Q.** With `CC(=O)C1=C(O)C(=O)N(c2nccs2)C1c1ccccc1F` (configuration not stated) as the compound, how does the Potency read?
**A.** inactive

**Q.** How did the Potency turn out when `O=[N+]([O-])c1cc(F)c(N2CCCCC2)cc1N1CCOCC1` was run?
**A.** inconclusive: 44.7 µM [inhibitor, partial curve]

**Q.** How did the Potency turn out when `N=C(N)c1ccc(N=Nc2c(O)ccc3c2[nH]c2ccccc23)cc1` was run?
**A.** active: 56.2 µM

**Q.** Which Potency does the source give for `Clc1ccc(Cl)c2sc(N3CCOCC3)nc12` here?
**A.** inactive

**Q.** For `CN(c1ccc(C(=O)N2CCN(Cc3ccc4c(c3)OCO4)CC2)cc1)S(=O)(=O)c1ccccc1`, which Potency is on record?
**A.** inconclusive: 35.5 µM [inhibitor, full curve, poor fit]

**Q.** For `Oc1cccc2oc(=S)[nH]c12`, which Potency is on record?
**A.** inconclusive: 39.8 µM [inhibitor, single point]

**Q.** How did the Potency turn out when `CCn1nc(NS(=O)(=O)c2ccccc2[N+](=O)[O-])c2cc3cccc(C)c3nc21` was run?
**A.** inconclusive: 50.1 µM [inhibitor, partial curve]

**Q.** Which Potency does the source give for `CCC[C@@H](CN1CCC[C@H]1CN1C(N)=NC[C@@H]1Cc1ccccc1)N1C[C@@H](Cc2ccccc2)N(CCc2ccc(Cl)c(Cl)c2)C1=N` here?
**A.** inconclusive: 56.2 µM [inhibitor, partial curve]

**Q.** With `Cc1cc(-c2nnc(SCC(=O)c3ccc4c(c3)OCCO4)o2)no1` as the compound, how does the Potency read?
**A.** inconclusive: 39.8 µM [inhibitor, single point]

**Q.** How did the Potency turn out when `CCCN1C(=O)c2[nH]nc(-c3ccccc3O)c2C1c1ccc(OCc2ccccc2)c(OC)c1` (configuration not stated) was run?
**A.** inconclusive: 44.7 µM [inhibitor, partial curve]

**Q.** With `O=C(Nc1ccncc1)Nc1cccc(F)c1` as the compound, how does the Potency read?
**A.** inactive

**Q.** With `CC1(C)Cc2ccccc2C(N/N=C/c2ccc(Cl)cc2)=N1` as the compound, how does the Potency read?
**A.** inconclusive: 31.6 µM [inhibitor, partial curve]

**Q.** Which Potency does the source give for `CCOC(=O)N1CCC(N(CCN(C)C)C(=S)Nc2ccccc2OCC)CC1` here?
**A.** inactive

**Q.** `O=c1c(-c2ccco2)[n+]([O-])c2ccccc2n1OCc1ccccc1F` was tested. Which Potency did it give?
**A.** inactive

**Q.** With `C=CCc1ccc(OCCN2CCc3ccccc3C2)c(OC)c1` as the compound, how does the Potency read?
**A.** inconclusive: 31.6 µM [inhibitor, full curve, poor fit]

**Q.** Which Potency does the source give for `CCn1c(C(=O)NCc2ccccc2C)cc2oc3ccccc3c21` here?
**A.** inconclusive: 22.4 µM [inhibitor, full curve]

**Q.** With `Cc1nc(-c2cccc(NC(=O)Nc3ccc([N+](=O)[O-])cc3)c2)no1` as the compound, how does the Potency read?
**A.** inconclusive: 50.1 µM [inhibitor, partial curve]

**Q.** Which Potency does the source give for `c1coc(-c2nc3ccccc3nc2-c2ccco2)c1` here?
**A.** inconclusive: 89.1 µM [inhibitor, single point]

**Q.** Which Potency does the source give for `COc1ccccc1N1CCN(c2ccc([N+](=O)[O-])cc2Cl)CC1` here?
**A.** inconclusive: 50.1 µM [inhibitor, partial curve]

**Q.** `CCc1ccc(NC(=O)CSc2nccn2-c2ccc(OC)cc2)cc1` was tested. Which Potency did it give?
**A.** inconclusive: 50.1 µM [inhibitor, partial curve]

**Q.** How did the Potency turn out when `CNC(=O)C1CCC(Cn2c(=O)c3sccc3n(Cc3ccc(F)cc3)c2=O)CC1` (configuration not stated) was run?
**A.** inactive

**Q.** How did the Potency turn out when `N/C(Cc1ccc([N+](=O)[O-])cc1)=N\OC(=O)c1ccc([N+](=O)[O-])cc1` was run?
**A.** inconclusive: 12.6 µM [inhibitor, full curve, poor fit]

**Q.** Which Potency does the source give for `COc1cc(CNc2ccc(N3CCOCC3)cc2)ccc1OCC(=O)NC(C)(C)C` here?
**A.** inconclusive: 44.7 µM [inhibitor, partial curve]

**Q.** `CC(Sc1nnc(NC2CCCCC2)s1)C(=O)Nc1ccc2c(c1)C(=O)c1ccccc1C2=O` (configuration not stated) was tested. Which Potency did it give?
**A.** inconclusive: 11.2 µM [inhibitor, partial curve]

**Q.** For `CCC(C(=O)NC1C(=O)N2C(C(=O)O)=C(CSc3nnc(C)s3)CSC12)c1ccccc1` (configuration not stated), which Potency is on record?
**A.** inconclusive: 39.8 µM [inhibitor, single point]

**Q.** For `C/C(=N\NC(=O)c1cc2ccccc2cc1O)c1ccc(C)o1`, which Potency is on record?
**A.** inactive

**Q.** `O=C(CN1CCN(S(=O)(=O)c2cc(C(F)(F)F)ccc2Cl)CC1)N1CCc2ccccc2C1` was tested. Which Potency did it give?
**A.** inconclusive: 89.1 µM [inhibitor, single point]

**Q.** Which Potency does the source give for `Cc1ccc(N(CC(=O)Nc2cccc(F)c2)S(=O)(=O)c2cccs2)cc1` here?
**A.** inactive

**Q.** Which Potency does the source give for `CC(=O)c1ccc(NC(=O)Cc2cccs2)cc1` here?
**A.** inconclusive: 79.4 µM [inhibitor, partial curve]

**Q.** For `CCCOc1cccc(C2C(C(=O)c3ccco3)=C(O)C(=O)N2CCN(CC)CC)c1` (configuration not stated), which Potency is on record?
**A.** inactive

**Q.** How did the Potency turn out when `O=C(/C=C/c1cccc([N+](=O)[O-])c1)Nc1ccc(NC(=O)c2cccs2)cc1` was run?
**A.** inconclusive: 3.55 µM [inhibitor, partial curve, poor fit]

**Q.** For `CCOc1ccc(C(=O)CCNC(Cc2cnc[nH]2)C(=O)O)cc1` (configuration not stated), which Potency is on record?
**A.** inconclusive: 6.31 µM [inhibitor, partial curve, poor fit]

**Q.** `COc1ccc(S(=O)(=O)N(C)C)cc1NC(=O)CCNC(=O)c1ccccc1OC` was tested. Which Potency did it give?
**A.** inactive

**Q.** With `Cc1ccc2nc(N(CCCN(C)C)C(=O)c3ccc(S(=O)(=O)N4CCc5ccccc5C4)cc3)sc2c1` as the compound, how does the Potency read?
**A.** inconclusive: 15.8 µM [inhibitor, partial curve]

**Q.** How did the Potency turn out when `Cc1ccsc1C(=O)N1CCCC(CO)(Cc2ccccc2)C1` (configuration not stated) was run?
**A.** inactive

**Q.** Which Potency does the source give for `COc1ccc(CCN(Cc2cccs2)S(=O)(=O)c2ccc(-n3cnnn3)c(OC)c2)cc1OC` here?
**A.** inactive

**Q.** How did the Potency turn out when `O=C(c1ccco1)N1CCN(C(=O)c2ccc(COc3ccc4c(c3)CCC4)o2)CC1` was run?
**A.** inconclusive: 79.4 µM [inhibitor, partial curve]

**Q.** For `Cc1ccccc1-n1nnnc1SCC(=O)Nc1ccc(N2CCN(C)CC2)cc1`, which Potency is on record?
**A.** inconclusive: 100 µM [inhibitor, single point]

**Q.** With `Cc1nnc(N/N=C/C(C)c2ccccc2)[nH]c1=O` (configuration not stated) as the compound, how does the Potency read?
**A.** active: 0.891 µM

**Q.** How did the Potency turn out when `Cc1ccc(CNS(=O)(=O)c2ccc3[nH]c4c(c3c2)CCCC4)cc1` was run?
**A.** inconclusive: 25.1 µM [inhibitor, single point]

**Q.** With `COc1ccc(OC)c(CNC(=O)Cc2ccc(NC(=O)N3CCSc4ncccc43)cc2)c1` as the compound, how does the Potency read?
**A.** inactive

**Q.** With `O=C(C1CCN(c2ncnc3c2nc2n3CCCCC2)CC1)N1CCN(c2cccc(Cl)c2)CC1` as the compound, how does the Potency read?
**A.** inactive and inconclusive: 79.4 µM [inhibitor, partial curve]
